We go through 90 compounds from PubChem BioAssay AID360 (National Center for Advancing Translational Sciences (NCATS), 2006).

Molecules are shown by their SMILES. In all, about 48,000 compounds went through this assay and about 550 (1.1%) were called active. Inconclusive results (about 4%) are left out. Cut-off read from the data, not from the text of the source: active = potency below about 15 µM; inconclusive = mostly about 16 µM to 33 µM; inactive = weaker than that. The list shows a part of the results. Where only a bound is given, the exact number is not on record here.
Potency is the fitted concentration of half-maximal effect.

Chain of UniProt P04062 (P04062 whole entry, looked up): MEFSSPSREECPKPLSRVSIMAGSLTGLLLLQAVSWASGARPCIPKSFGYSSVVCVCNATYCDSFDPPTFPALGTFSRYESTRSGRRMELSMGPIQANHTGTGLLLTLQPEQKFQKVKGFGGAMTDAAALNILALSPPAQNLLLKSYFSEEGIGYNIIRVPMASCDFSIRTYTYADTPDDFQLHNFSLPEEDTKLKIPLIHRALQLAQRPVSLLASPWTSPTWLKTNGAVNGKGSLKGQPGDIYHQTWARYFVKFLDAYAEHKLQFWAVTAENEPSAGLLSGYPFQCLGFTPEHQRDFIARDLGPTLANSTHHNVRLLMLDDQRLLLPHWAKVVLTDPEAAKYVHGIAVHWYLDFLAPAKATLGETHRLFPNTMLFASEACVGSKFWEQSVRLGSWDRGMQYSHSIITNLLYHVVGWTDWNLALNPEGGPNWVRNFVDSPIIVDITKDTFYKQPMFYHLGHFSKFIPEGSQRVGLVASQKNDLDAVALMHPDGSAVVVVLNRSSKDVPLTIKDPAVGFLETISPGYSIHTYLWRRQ

The experiment deals with Lysosomal acid glucosylceramidase (Homo sapiens) (UniProt P04062). Kind of experiment: Glucocerebrosidase.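 Note: the screen sought inhibitors.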 Conditions: purified enzyme, resorufin glucoside fluorescence (screen aimed at inhibitors), 20 min; series mostly up to 77 µM. In outline:
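Wild-type enzyme at 0.2 nM final in 50mM citric acid/KH2PO4, 10mM sodium taurocholate, 0.01% tween-20, pH 5.9, with resorufin beta-D-glucopyranoside at 30 uM final. Compounds titrated, 20 min at RT, red fluorescence read; AC50 from titration.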
Take `O=C(CSc1nnc(-c2ccncc2)n1-c1ccc(F)cc1)NC(=O)NCc1ccco1`: the Potency is inactive: > 76.9 µM.
Then `CCCn1c(N)c(C(=O)CN2CCN(S(=O)(=O)c3cccs3)CC2)c(=O)[nH]c1=O`, with inactive: > 76.9 µM; and `COc1ccc(-c2noc(CCCC(=O)NCCc3ccccc3)n2)cc1OC`, with inactive: > 76.9 µM.
Then `O=c1[nH]c(C2CCCN(S(=O)(=O)c3ccccc3)C2)nc2c1nnn2Cc1ccccc1F` (stereo not given), with “inactive”.
The same measure for `CN(CC(=O)NCc1ccc(Cl)cc1)S(=O)(=O)c1cccc2nsnc12`: inactive: > 76.9 µM; for `CC(C)c1ccc(OCc2nc(-c3ccccn3)no2)c(Br)c1`: inactive: > 76.9 µM; for `CN(C)c1ccc(NC(=O)CN2CCN(CC(=O)Nc3ccc(F)cc3)CC2)cc1`: inactive: > 76.9 µM.
For `Cn1c2c(c(=O)n(C)c1=O)CN(Cc1ccc(F)cc1)CN2`, the Potency was inactive: > 76.9 µM.
Then `COc1ccc(N2CCn3c2nc2c3c(=O)n(CCCc3ccccc3)c(=O)n2C)c(OC)c1`, with inactive: > 76.9 µM.
Then `NC(=O)c1ccsc1NC(=O)COC(=O)c1ccccc1NCc1ccco1`, with inactive: > 76.9 µM; and `COc1ccccc1CNc1nc2ccccc2n1CCN1CCCCC1`, with inactive: > 76.9 µM; and `Cc1cc(NC(=O)COc2ccc(N(C)S(=O)(=O)c3ccccc3)cc2)no1`, with inactive: > 76.9 µM.
`CCN(CC)S(=O)(=O)c1ccc2c(c1)c(=O)c(C(=O)N1CCc3ccccc3C1)cn2C`: the Potency is inactive: > 76.9 µM.
The same measure for `N=c1cc(C2(O)CCCCC2)n2c(nc3ccccc32)s1`: inactive: > 76.9 µM; for `CCc1nnc(SCC(=O)Nc2ccccc2)nc1CC`: inactive: > 76.9 µM.
In the case of `CCOc1cc(C2C(C(=O)OC)=C(C)N=C3SCCC(=O)N32)ccc1OC(C)=O` (stereo not given), the Potency was inactive: > 76.9 µM.
Then `COC(=O)C1=C(C)N=c2s/c(=C/c3ccoc3)c(=O)n2C1c1ccccc1` (stereo not given), with inactive: > 76.9 µM; and `Cc1ccc(CN2CCC(C(=O)NCCC(C)C)CC2)o1`, with inactive: > 76.9 µM; and `O=[n+]1cc(-c2ccc(F)cc2)n([O-])c2c1CCC2`, with inactive: > 76.9 µM.
For the compound `COC(=O)c1c(-c2ccc(OC)c(OC)c2)csc1N`, the Potency is inactive: > 76.9 µM.
Then `Cc1c(NC(=O)c2cc(-c3cccs3)on2)c(=O)n(-c2ccccc2)n1C`, with inactive: > 76.9 µM; and `Cc1ccc2occ(C(c3nnnn3Cc3ccccc3)N3CCOCC3)c(=O)c2c1` (stereo not given), with inactive: > 76.9 µM; and `C=CCn1c(SCC(N)=O)nnc1-c1cc(Br)ccc1O`, with inactive: > 76.9 µM.
The same measure for `COc1ccc(CCNC(=O)c2c(O)c3cccc4c3n(c2=O)CC4)cc1OC`: inactive: > 76.9 µM; for `CCN1CCCC1Cn1cnc2c([nH]c3cccc(Cl)c32)c1=O` (stereo not given): inactive: > 76.9 µM.
Then `CCOC(=O)C(C(=O)OCC)C(C#N)c1ccccc1` (stereo not given), with inactive: > 76.9 µM.
With `CCOC(=O)c1c(C)oc2c1c(C(c1ccncc1)N1CCOCC1)c(O)c1ccccc12` (stereo not given), the Potency is inactive: > 76.9 µM.
On to `Cc1c(C(=O)OCC2CCCO2)[nH]c2c1C(=O)CC(c1ccco1)C2` (stereo not given), for which the Potency is inactive: > 76.9 µM.
The same measure for `O=C(COC(=O)C1(c2ccccc2F)CCCC1)NC1CCS(=O)(=O)C1` (stereo not given): inactive: > 76.9 µM; for `COc1cc2c(=O)n(CCCN3CCOCC3)c(=S)[nH]c2c(OC)c1OC`: inactive: > 76.9 µM.
As for `O=C(OCCCc1ccncc1)c1ccc(S(=O)(=O)N2CCOCC2)cc1`, the Potency was inactive: > 76.9 µM.
The same measure for `O=S(=O)(Nn1cnnc1)c1ccccc1Cl`: inactive: > 76.9 µM; for `Cc1cc(N2CCCCC2)n2nc(C)c(-c3ccccc3)c2n1`: inactive: > 76.9 µM.
Then `CCn1c(Cn2nnc(-c3ccccc3)n2)nnc1SCC(=O)Nc1cccc(C(C)=O)c1`, with inactive: > 76.9 µM; and `CN(C1CCS(=O)(=O)C1)S(=O)C12CC3CC(CC(C3)C1)C2` (stereo not given), with inactive: > 76.9 µM.
Take `COc1cccc(OC)c1C(=O)N1CC(C)OC(C)C1` (stereo not given): the Potency is inactive: > 76.9 µM.
The same measure for `CC1CCCCN1C(=O)CSc1nnc(-c2ccco2)n1CC1CCCO1` (stereo not given): inactive: > 76.9 µM.
Then `c1ccn(-c2ncnc3sc4c(c23)CCCC4)c1`, with inactive: > 76.9 µM.
In the case of `O=c1ccn(Cc2ccccc2)c(=O)n1Cc1ccccc1`, the Potency is inactive: > 76.9 µM.
The same measure for `COc1ccc(CNc2nc3ccccc3n2CCN2CCCCC2)c(OC)c1`: inactive: > 76.9 µM; for `CCC(C)NC(=O)CSC1=Nc2ccccc2C2=NC(CC(=O)NCc3ccccc3)C(=O)N12` (stereo not given): inactive: > 76.9 µM; for `Cc1ccccc1NC(=O)CN(c1ccc(F)cc1)S(C)(=O)=O`: inactive: > 76.9 µM.
The same measure for `COc1ccc(CCNc2nc(N3CCOCC3)nc(N3CCOCC3)n2)cc1OC`: inactive: > 15.4 µM.
The same measure for `C=C(C)CSc1nncn1/N=C/c1ccc(OC)cc1`: inactive: > 76.9 µM.
As for `COc1cc(NS(=O)(=O)c2ccc(NC(=O)c3ccco3)cc2)nc(OC)n1`, the Potency is inactive: > 76.9 µM.
`O=C(Cc1nc2ccccc2[nH]1)NCc1ccco1`: the Potency was inactive: > 76.9 µM.
Then `Cc1cc(C)n2nc3ccccc3c2n1`, with inactive: > 76.9 µM.
The same measure for `CC(=O)c1cc(-c2ccccc2)[nH]c1N1CCOCC1`: inactive: > 76.9 µM; for `COc1cc(C(c2nnnn2C(C)(C)C)N2CCN(C)CC2)cc(OC)c1OC` (stereo not given): inactive: > 76.9 µM; for `CCCCC(=O)NCCc1ccc(S(N)(=O)=O)cc1`: inactive: > 76.9 µM.
Then `Cc1ccc(C(=O)NCC(=O)O)cc1S(=O)(=O)N1CCCCC1`, with inactive: > 76.9 µM.
For `CC(=O)c1sc2nc(-c3cccs3)cc(C(F)(F)F)c2c1N`, the Potency is active: 13.5 µM.
For the compound `O=C(c1cccn2c(=O)c3ccccc3nc12)N1CCN(Cc2ccc3c(c2)OCO3)CC1`, the Potency is inactive: > 76.9 µM.
For the compound `COc1cc(NC(=O)c2ccc(-c3ccc(Br)cc3)o2)ccc1NC(=O)C(C)C`, the Potency is inactive: > 76.9 µM.
Consider `Cc1nn(-c2ccccc2)c2sc(C(=O)N(CC(=O)NC3CCCC3)Cc3ccco3)cc12`, for which the Potency is inactive: > 76.9 µM.
The same measure for `O=C(O)CCC(=O)CCC(=O)c1ccccc1`: inactive: > 76.9 µM.
The same measure for `Cc1cc(NS(=O)(=O)c2ccc(NC(=O)CCN3C(=O)c4ccccc4C3=O)cc2)no1`: inactive: > 76.9 µM; for `CC(C)CNC(=O)c1ccccc1NC(=O)CN(c1ccc2c(c1)OCCO2)S(C)(=O)=O`: inactive: > 76.9 µM.
Then `CCOc1ccccc1NC(=O)CSc1nnc(-c2ccccn2)n1Cc1ccco1`, with inactive: > 76.9 µM; and `COc1ccc(C2=NOC3(CC(=O)N(c4ccc(C)cc4)C3=O)C2)c(OC)c1` (stereo not given), with inactive: > 76.9 µM; and `Cc1[nH]c(=O)[nH]c(=O)c1S(=O)(=O)NCC12CC3CC(CC(C3)C1)C2`, with inactive: > 76.9 µM.
`O=C(O)c1ccc(CNC(=O)c2ccc(Br)o2)cc1`: the Potency is inactive: > 76.9 µM.
`CC(C)(C)C(=O)Cn1c(NCCCO)nc2ccccc21`: the Potency result was “inactive”.
The same measure for `COc1ccc(C(=O)NCc2ccccc2OC)cc1`: inactive: > 76.9 µM; for `O=C(COC(=O)C12CC3CC(CC(C3)C1)C2)NCc1ccco1`: inactive: > 76.9 µM; for `CCOC(=O)C1C(=O)CC(C)(O)C(C(=O)OCC)C1c1cc(Br)ccc1OC` (stereo not given): inactive: > 76.9 µM.
The same measure for `COC(=O)[C@H](Cc1ccccc1)NC(=O)Nc1ccc(S(N)(=O)=O)cc1`: inactive: > 76.9 µM; for `CC1(C)CC(=NO)CC(C)(C)N1`: inactive: > 76.9 µM; for `CC(C)NC(=O)Cn1c(SCC(=O)N2CCCCCC2)nc2ccccc21`: inactive: > 76.9 µM.
Then `CC1CCN(C(c2ccccc2)c2nnnn2C(C)(C)C)CC1` (stereo not given), with inactive: > 76.9 µM; and `COc1ccc(OCCn2c(=N)n(CCO)c3ccccc32)cc1`, with active: 4.33 µM.
With `c1cn2cc(CSC3CCCCC3)nc2s1`, the Potency was inactive: > 76.9 µM.
Then `COc1ccc(NC(=O)C2Cc3ccccc3CN2C(=O)c2ccccc2)cn1` (stereo not given), with inactive: > 76.9 µM; and `O=C(COc1ccccc1Cl)NCCCN1CCOCC1`, with inactive: > 76.9 µM.
Then `CCNc1oc(-c2cccc3ccccc23)nc1C#N`, with inactive: > 76.9 µM; and `Cc1ccccc1N(CC(=O)NCCc1ccccc1)C(=O)c1ccc(N2CCCC2)nc1`, with inactive: > 76.9 µM; and `Cc1cc(=O)cc(C)n1-c1ccc2c(c1)nc(C)n2-c1ccccc1`, with inactive: > 76.9 µM.
Then `CCCCOC(=O)C1[C@H]2C(=O)N(Cc3cccs3)C[C@]23C=C[C@H]1O3` (stereo not given in full), with inactive: > 76.9 µM.
On to `CC(C)CC(=O)CN1C(=O)C2(OCCO2)c2ccccc21`, for which the Potency was inactive: > 76.9 µM.
Then `CCOC(=O)c1c(CN2CCCCC2C)oc2ccc(OC)cc12` (stereo not given), with inactive: > 76.9 µM; and `CCOc1cccc(C(=O)Nc2ccccc2N2CCN(C(=O)C(C)C)CC2)c1`, with inactive: > 76.9 µM.
The same measure for `COc1cccc(CNC(=O)C2CCCN(c3nc4ccccc4o3)C2)c1` (stereo not given): inactive: > 76.9 µM.
The same measure for `Cc1cccnc1NC(=O)CCCN1C(=O)c2ccccc2C1=O`: inactive: > 76.9 µM; for `CCOCCn1cnc2sc(C(=O)NCC(=O)OCC)c(C)c2c1=O`: “inactive”; for `CCOc1ccccc1OCCOCCN1CC(C)OC(C)C1` (stereo not given): inactive: > 76.9 µM.
`CCOc1cc(C)c(Cl)cc1S(=O)(=O)N(CC)CC`: the Potency is inactive: > 76.9 µM.
On to `CC(C)[C@H](NC(=O)NCc1ccc(Cl)cc1)C(=O)O`, for which the Potency is inactive: > 76.9 µM.
Then `Cc1ccc(CCNC(=O)C2CCCN(S(=O)(=O)c3cccc4nsnc34)C2)cc1` (stereo not given), with inactive: > 76.9 µM.
Then `Nn1c(Cc2ccccc2F)nnc1SCC(=O)N1CC(=O)Nc2ccccc21`, with inactive: > 76.9 µM; and `COc1ccc(Cn2nnnc2C(c2ccccc2)N2CCN(C3CCCC3)CC2)cc1` (stereo not given), with inactive: > 76.9 µM.
